Read counts are not given, so values of variants with three or more changes are uncertain.
B1: CPEB3 Ribozyme (parent)
chain: UAACAGGGGGCCACAGCAGAAGCGUUCACGUCGCAGCCCCUGUCAGAUUCUGGUGAAUCUGCGAAUUCUGCUGUAUAUCUC

Variants of: B1
Assay: self-cleavage, relative activity (ratio to wild type); higher = more cleavage; in vitro, sequencing
Method in brief: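 Relative activity compares each variant's cleaved/total read fraction with that of the unmutated ribozyme. To get these fractions, barcoded CPEB3 ribozyme libraries from rounds of error-prone PCR were transcribed with T7 RNA polymerase for 5 hours at 37°C and then given 15 min of DNase I treatment before EDTA was added. The RNAs were reverse transcribed with template switching and sequenced on Illumina, and DNA sequencing linked barcodes to variants. A minimum of 5 reads applied, and three batches were averaged.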

Row | Variant | self-cleavage
1 | G10U A13G U60G U72C | 0.06
2 | G9U A20G C29U A45C | 0.22
3 | G10A A15G C40U | 0.07
4 | G10A U25C U74A | 0.19
5 | G10A U25C U49A U67A | 0.34
6 | G10A U26C U43C U80C | 0.4
7 | G10A A20G U26A U48C A64G U69C U78C | 0.03
8 | C11A A35G U43G | 0.5
9 | G10A A20U U26A A45U | 0.15
10 | C11G U25A U31C G42A U51C | 0.37
11 | G10A A28G G53U | 0.08
12 | G10A A57G U66C | 0.33
13 | G10A U78A U80C | 0.16
14 | G10A A65G U67C U69A | 0.11
15 | C11G A18U U31A U60C U78C | 0.12
16 | C11G A15G U26C U41A | 0.09
17 | C11G U25C C27G U67C | 0.15
18 | C11G A47G U69C U80C | 0.22
19 | G10U U41C U69A U80C | 0.05
20 | C11A A18G A45G U66C U72C U76C | 0.04
21 | G9U C23U A47G U60C U69A | 0.11
22 | C11A A20G G24A U25C | 0.06
23 | C11G A13G G46A U69A U72G | 0.07
24 | G10A U25C U26C U48C | 0.19

Row | Variant | self-cleavage
25 | C11G U25C U41C U67A U74G | 0.11
26 | C11G U41C U72A U74G U80C | 1.2
27 | C11G A18U U41C C44G | 0.05
28 | C11G U25C C32A A45G U80C | 0.35
29 | G10A G16A U49C | 0.07
30 | C11A A64G U69A U72A | 0.06
31 | C11G C32U A64C | 0.07
32 | G9U A21U U51A A56G U80C | 0.16
33 | G9U U58A A75G | 0.06
34 | G10A C29A U43C U80C | 0.21
35 | C11G C27U U41A U60C U67A | 0.28
36 | C11A A13G A21G U41A A47G A57G U66C | 0.03
37 | C11G A13C A35U U41A U51C A56G U80C | 0.35
38 | G10A A28G U60G G63U | 0.05
39 | C11G A13U U25C G33A | 0.05
40 | G10C A20C C59U | 0.06
41 | C11G A18U U49C | 0.04
42 | G10A A13U G63U | 0.39
43 | G9U A13U U60C U72G U76C | 0.04
44 | G9U U31A U41C G42C A57G | 0.28
45 | C11A U25C U26C | 0.53
46 | G10C U48C A65U | 0.13
47 | G10A A57G G70U | 0.06
48 | G10A C12U G16A U60A A64G U66C | 0.05

Row | Variant | self-cleavage
49 | G10U A13U C17U | 0.09
50 | C11A U26A C29U C37G U48C U51G | 0.03
51 | G9U U54C U72C U78A | 0.24
52 | G9U A18U U25C U26G U43C U49C | 0.06
53 | C11A A13G C29U U58C U72C A75G | 0.03
54 | G9U A45G A65G G73A U74C | 0.05
55 | G10A C29U C44U U54A | 0.14
56 | G9U U49C U58C U69C U78A | 0.05
57 | C11A A15G C39A A45C A47U U58A U80C | 0.31
58 | G10A G46A U66C C71A U72C | 0.08
59 | G10C A45G U67C U72C | 0.09
60 | C11A A13U G53U | 0.45
61 | G9U A21G U66C | 0.18
62 | C11G A21G U49C A56G | 0.11
63 | G9U A13G U25C G30A A45U A75G | 0.1
64 | G9U A15U A28G U66C U80C | 0.16
65 | G9U A13U A18U U25C U69C | 0.05
66 | C11A A18U A21U C27A G63A | 0.07
67 | G10A A35G G55A U60A | 0.06
68 | G9U A13U G33U C50G G61A | 0.08
69 | G10A A20U U49A U51G U66C | 0.17
70 | C11G G36C U41A A77G | 0.05
71 | G10A U25C C32A U41A G55C U72G U80C | 0.04
72 | C11A A28U U43A A64G U69A U72A | 0.05

Row | Variant | self-cleavage
73 | C11A A15U U25A U26A U49A U51A U78C | 0.04
74 | G10C A21G U41A A56G | 0.07
75 | G10A A28G A57G A64G U72G U80C | 0.06
76 | G10U A13G U49A U78C | 0.16
77 | G9U A13U U41C G52A A57G | 0.17
78 | G10A C44U G63A U78C | 0.05
79 | C11G A18U A45U U69A | 0.1
80 | G10C A13G A20G U41C U43G U51C U80A | 0
81 | G9U U51C U69C U72A | 0.05
82 | C11A A21G A28U A65G | 0.05
83 | G10A A13G C29G A47U U54C C79U | 0.08
84 | G10C A20U U41A U43A U49C U51A | 0.14
85 | C11G U41C A56G A57G | 0.08
86 | G10A A15U G55A A64U | 0.06
87 | G10A U67C U76C A77U | 0.04
88 | G10A U26C C27U A47G | 0.19
89 | G10C U26C A64G A65G | 0.23
90 | G10A A13G G42A U72A | 0.07
91 | G10A C11G A21G U76G U80A | 0.06
92 | G10C C29U A35U U49C U51A G53A | 0.11
93 | G10U U54A U80C | 0.2
94 | G10A G19A A21U | 0.05
95 | G10A A18G A20U U26C C37U A56G U80C | 0.03
96 | G10A A21U U25C U72A | 0.11

Row | Variant | self-cleavage
97 | C11A A28G C40A U60A U69C U76C | 0.03
98 | C11G A21G G46A G63A U67C | 0.03
99 | C11A A20G G30A A77G | 0.28
100 | G10A A35G U54C U72C | 0.63
101 | G10A C14A A18G U48C A56U U60A U78C | 0.02
102 | C11G U25C A56U A65G U72A | 0.11
103 | G10A A45C A64U U72C | 0.18
104 | G10A U31C A45G | 0.13
105 | G10A U25C G33A U41A | 0.06
106 | G9U A20G U51A U80C | 0.19
107 | C11G A18U A20G U66C | 0.17
108 | G10A C11U U49A U60G U69C G70A A75G | 0.06
109 | G10A G30A U31A | 0.05
110 | G9U U25C U76C U80A | 0.12
111 | G10A A20G A45U U54C U67C | 0.05
112 | G10A G61U A64U | 0.06
113 | G10A A18U A35G U41A U51C U54C U60C | 0.05
114 | G10U A13C A15G U41A | 0.1
115 | C11G A18G U31C G36C U49G U60A U74C | 0.15
116 | C11G U25A C37A C38A | 0.32
117 | C11A A47U U54C A65G U66A | 0.05
118 | C11A G33A U54C U67C | 0.09
119 | C11A C27A U67A | 0.09
120 | G10A A13U U43C C44U C59G C81A | 0.04

Row | Variant | self-cleavage
121 | G10U A20G A45U A47G A77U | 0.03
122 | G10A A21G U25A A45G U74C | 0.07
123 | C11G C17U C39G U66C | 0.06
124 | C11A A35U C40U A57G U72A | 0.06
125 | G10C A15G G24A U26C U43C U72A | 0.24
126 | G10A U67A U72A A77G | 0.06
127 | C11G U25C U66G | 0.09
128 | G10A C23U U41C | 0.06
129 | C11A C14U U41G U60C | 0.32
130 | C11G U41C G53C U54C A57G | 0.39
131 | C11A A47G U49C C68U | 0.05
132 | C11A U26C G73A U78A | 0.2
133 | G9U A35U A56G A57U | 0.12
134 | G10U A45G A64G | 0.45
135 | G9U C14U C29U U60C | 0.06
136 | C11G U48C U51G U54C U67C A75U U76C | 0.08
137 | G10A A15G C71U U78A | 0.07
138 | G10A A45G U67C U72C U80G | 0.05
139 | G9U A15U C39A | 0.05
140 | G10A U31C A35U U48C U80C | 0.19
141 | C11A A15U A35U A45G U67C U69C | 0.08
142 | G10A G36A U49C U60C U78C | 0.05
143 | C11G A18G U41A | 0.09
144 | G9U C12U A18G U49C A64G U72G | 0.02

Row | Variant | self-cleavage
145 | G9U A20G U31G G42U U49A A56G C81U | 0
146 | C11A G19U A20G U31C A35G C38U U69C | 0.02
147 | G9U A56U U69G | 0.05
148 | G10A C40U U43C A75G | 0.05
149 | G9C U25C U78A | 0.48
150 | G10U U41G U43C U51C U69A | 0.14
151 | C11G A20G C34U A47G U48C U51C G53A | 0.04
152 | G10A C17U A47U | 0.03
153 | C11G A15G U25C C40G U60C U69C | 0.06
154 | C11G U41A A45G A64U | 0.33
155 | G10A A20G A35C U41C U43A U72C A77C | 0.04
156 | C11G A13G A45G A57G U66A | 0.04
157 | G10A A35G U49G | 0.24
158 | C11G A57G A77G | 0.18
159 | G10A U41A U69A U80C | 0.16
160 | G9U C12G A18G C32U | 0.05
161 | G10A G53C A65G U80C | 0.04
162 | C11G U25C A64U | 0.28
163 | G9U A13U U49C U58C U60C | 0.06
164 | G10C A64G C71A U72A | 0.05
165 | G10U A35U U41A A57G A65G U78A | 0.02
166 | G10A U49C U54C | 0.18
167 | C11G A28G C37G A45U | 0.28
